In all, about 350,000 compounds went through this assay and about 9,900 (2.8%) were called active. This list was built around the results that the source calls inconclusive (neither active nor inactive); the mix of calls is not that of the screen. The call rests on the fitted dose curve; in most records, active means well fitted activation curve with a large enough effect; inconclusive means small, poorly fitted or top-dose-only effect; inactive means no such curve, though single readings can be large or run the other way. No potency is given beside an inconclusive call; the fits are too rough.
Assay: A quantitative high throughput screen for small molecules that induce DNA re-replication in MCF 10a normal breast cells. Further: nearly all actives have a fitted effect of over 50% in size.
Conditions: MCF 10A DNA re-replication, Hoechst nuclear intensity, 48 h; series mostly up to 46.1 µM
Potency means the concentration at half of the fitted maximal effect; tags describe the fitted curve by direction and shape.

SMILES	Potency
Cc1cc(C)c(S(=O)(=O)Nc2nnc(C)s2)c(C)c1	inconclusive [activator, single point]
COc1ccc(C2NCCc3c2[nH]c2ccccc32)cc1CSc1nc2ccccc2s1 (centres undefined)	inconclusive [activator, single point]
N#C/C(=C\c1ccccc1C(=O)O)c1nc2ccccc2[nH]1	inactive
CCOC(=O)c1c(C)c(C(=O)O)n(C)c1C	inactive
CC(C)Oc1ccc(/C(O)=C2/C(=O)C(=O)N(CCN3CCNCC3)C2c2ccc(C(C)C)cc2)cc1 (centres undefined)	inactive
CC(=O)O[C@H]1[C@H](O)[C@H](Oc2c(O)c(C)c3c4c2[C@@H](C)CC[C@@H]4[C@@H](C)C[C@H]3C=C(C)C)O[C@@H](C)[C@H]1O	inconclusive [activator, single point]
Cc1ccc(S(=O)(=O)N2C[C@@H]3[C@H]4CC[C@H](C4)[C@@H]3[C@@H](C)[C@@H]2c2cn(Cc3ccccc3)c3ccc(F)cc23)cc1	inconclusive [activator, full curve, poor fit]
c1ccc(CN2CCN(c3nc(-c4ccccc4)nc(-n4ccnc4)n3)CC2)cc1	inconclusive [activator, single point]
O=C(NN1CCOCC1)c1c(-c2ccccc2)sc2ccccc12	inconclusive [activator, partial curve, poor fit]
CCOc1ccc(-c2nnc(-c3cccs3)o2)cc1	inconclusive [activator, partial curve, poor fit]
Cn1c(=O)c2c(ncn2CC(COCc2ccccc2Cl)OCc2ccccc2Cl)n(C)c1=O (centres undefined)	active: 13 µM
Cc1cc(C)cc(NC(=S)N2CCN(Cc3ccccc3)CC2)c1	inactive
COc1cc(S(=O)(=O)N(Cc2ccc(C)cc2)Cc2ccco2)ccc1-n1cnnn1	inconclusive [activator, partial curve, poor fit]
O=C(Cc1c[nH]c2ccccc12)NCc1ccc2c(c1)OCO2	inactive
CCN(CC(O)Cn1c2ccccc2c2ccccc21)S(=O)(=O)c1ccc(C)cc1 (centres undefined)	inconclusive [activator, single point]
Cc1cc(O)cc(O)c1C(=O)Cc1cnn(-c2ccccc2)c1	inconclusive [activator, partial curve, poor fit]
O=C(N/N=C/c1cc2c(cc1Cl)OCO2)c1cc(-c2ccccc2)n[nH]1	inconclusive [activator, single point]
Cc1cc(C(=O)N/N=C/c2sc(N3CCOCC3)nc2-c2ccccc2)c(C)o1	inconclusive [activator, partial curve, poor fit]
COc1cc(S(=O)(=O)N2CCN3CCCC3C2)ccc1-n1cnnn1 (centres undefined)	inactive
CC(C)(C)c1csc(NC(=O)c2ccccc2O)n1	inconclusive [activator, single point]
COC(=O)c1ccc([C@H]2CC(=O)O2)cc1	inconclusive [activator, single point]
O=C(O)c1ccc(-c2sc(Nc3ccccc3)n[n+]2-c2ccccc2)cc1	inconclusive [activator, partial curve, poor fit]

SMILES	Potency
Clc1ccc(Cn2cc(/C=N/n3cnnc3)c3ccccc32)c(Cl)c1	inconclusive [activator, single point]
O=C(c1cccc(C(F)(F)F)c1)N1CCC2(CC1)NCCc1[nH]cnc12	inactive
Cc1ccccc1OCC(=O)Nc1ccccc1C(=O)N1CCCCC1	inactive
Cc1nnc(SCC(=O)N2CCC(c3noc4ccc(F)cc34)CC2)s1	inconclusive [activator, partial curve, poor fit]
CC(=NNC(=S)Nc1ccccc1Cl)c1ccccn1	inconclusive [activator, partial curve, poor fit]
CCOC(=O)CC(=O)Nc1ccccc1C(=O)O	inactive
COc1cc(Br)c(CC2c3cc(OC)c(OC)cc3CCN2C)cc1OC (centres undefined)	inactive
Cc1ccc(-c2nnc(NCCCO)c3ccccc23)cc1	inconclusive [activator, single point]
C=CCOn1c(C)c(C(C)=O)c2c3nonc3ccc21	inconclusive [activator, single point]
O=C(NC1CCCC1)c1ccccc1-c1nc2ccccc2[nH]1	inactive
Nn1c(SCC(=O)Nc2ccccc2)nnc(Cc2ccccc2)c1=O	inactive
CCOc1cccc2sc(N(CCCN(C)C)C(=O)c3ccc(S(=O)(=O)N(CC)Cc4ccccc4)cc3)nc12	inconclusive [activator, single point]
Cc1cccc(-c2ncc(CN3CCCC(CO)(Cc4ccccc4C)C3)cn2)c1 (centres undefined)	inconclusive [activator, single point]
Cc1ccc(C(=O)C2=C(O)C(=O)N(Cc3cccnc3)C2c2cccc(Oc3ccccc3)c2)o1 (centres undefined)	inactive
Cc1ccc(S(=O)(=O)c2nnn3c2nc(N2CCOCC2)c2ccccc23)cc1	inconclusive [activator, single point]
COc1ccc(N2CCN(Cc3nc4c(c(=O)[nH]c(=O)n4C)n3CCCc3ccccc3)CC2)cc1	inactive
O=C(NCc1ccccc1)c1noc2c1CCCCC2	inconclusive [activator, single point]
CCN(CC(=O)Nc1ccc(OC)cc1)C(=O)c1ccc(OCc2c(C)noc2C)cc1	inactive
NC1=NC(=Nc2ccccc2)c2ccccc21	inconclusive [activator, partial curve, poor fit]
O=P(O)(CCc1ccccn1)CN1CCOCC1	inconclusive [activator, full curve, poor fit]
Cc1ccc(NC(=O)CCc2c[nH]c3ccccc23)nc1	inconclusive [activator, full curve]
COc1ccc(C(=O)NC2CCCc3c2cnn3-c2ccccc2F)o1 (centres undefined)	inconclusive [activator, single point]

Reference: PubChem BioAssay AID624296 (National Center for Advancing Translational Sciences (NCATS), 2012)
